Laboratory results taken from PubChem BioAssay AID1508624 (National Center for Advancing Translational Sciences (NCATS), 2021).
Out of some 48,000 compounds screened, about 120 (0.25%) were called active. About 4% were inconclusive and are not listed. Calls come from the whole dose curve; as a rule, active = well fitted activation curve with a large enough effect; inconclusive = small, poorly fitted or top-dose-only effect, or another doubt; inactive = no such curve, though single readings can be large or run the other way. The list shows a part of the results.

Experiment: Primary qHTS for Identification of Small Molecule Activators of Huntingtin-Antisense Promoter Activity; note: nearly all actives have a fitted effect of over 55% in size
Settings: HEK293 HTT-AS promoter firefly luciferase reporter, 24 h; series mostly up to 57.5 µM; activity change, positive = activation: at the top concentration
Summary of the method: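 Quantitative HTS used concentration series of up to 57.5 uM final on HEK293 luciferase reporter cells, 24 h at 37 degrees C. Readout was Dual-Glo firefly luminescence.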

SMILES	activity change, positive = activation
COc1cc(NC(=O)CN2CCN(S(=O)(=O)c3ccc(Br)cc3)CC2)cc(OC)c1	inactive: 0%
Cc1ccc(Nc2cc(C(=O)NCCc3ccccc3)c3ccccc3n2)c(C)c1	inactive: -1.2%
COc1ccc(NC(=O)CSc2nc(-c3cc(OC)c(OC)c(OC)c3)[nH]c2-c2ccc(F)cc2)cc1	inactive: -40.2%
CCCCC(=O)Nc1c(C(=O)N2CCN(c3ccccc3F)CC2)oc2ccccc12	inactive: -26.4%
CCCOC(=O)c1cccc(NC(=O)c2c(-c3ccccc3Cl)noc2C)c1	inactive: -35.7%
O=C(Cn1nc(-c2ccc(Cl)cc2)c2ccccc2c1=O)Nc1cccc(Br)c1	inactive: -16.9%
Cc1ccccc1Cn1c(COc2ccc(Cl)cc2)nc2ccccc21	inactive: 9.68%
Cc1nc2ccc(S(=O)(=O)N(C)CC(=O)Nc3ccc(C(C)C)cc3)cc2s1	inactive: -15.1%
COc1ccc(CNC(=O)C2CCN(c3nnc(-n4c(C)ccc4C)s3)CC2)c(OC)c1	inactive: 0.707%
O=C(Nc1cccc(F)c1)C1CCCN(S(=O)(=O)c2cccc3cccnc23)C1 (configuration not stated)	inactive: -6.64%
CCCCN(C)CCCNC(=O)C1CCN(S(=O)(=O)CCC)CC1	inactive: 10.7%
O=C(Nc1ccccc1C(F)(F)F)c1ncoc1-c1ccco1	inactive: -16.3%
COc1ccc(-c2cc(C(F)(F)F)nc(SCCC(=O)Nc3ccc(NC(C)=O)cc3)n2)cc1	inactive: -15.8%
CCN(CC)c1ccc(CNCCCSc2nnnn2C)cc1	inactive: -7.03%
COc1ccc(CNC(=O)c2cc(Nc3ccccc3C)nc3ccccc23)cc1	inactive: -12.4%
Cc1oc2ncn(C)c(=O)c2c1C(=O)N1CCN(c2cccc(C(F)(F)F)c2)CC1	inactive: -14.7%
C[C@H]1C[C@H](O)c2ccsc2S1(=O)=O	inactive: 0.392%
COCCNc1nc2c(c(=O)n(C)c(=O)n2C)n1Cc1c(F)cccc1Cl	inactive: -29.9%
Cc1oc(-c2cccc(Cl)c2)nc1CN1CCC(C(=O)NC(C)c2ccccc2)CC1 (configuration not stated)	inactive: -14.6%
COc1ccc(Cl)cc1NC(=O)CSc1cn(CC(=O)N2CCCCC2)c2ccccc12	inactive: -42.7%
CCOc1ccc(CN2C(=O)c3ccccc3Sc3ccc(C(=O)NCc4ccco4)cc32)cc1	inactive: -28.1%
CCc1ccccc1NC(=O)CCCSc1nc(-c2ccco2)cc(C(F)(F)F)n1	inactive: 4.9% [at 11.5 µM, percent change from vehicle, -100% = no light]
COc1ccc(NC(=O)C2=CC(c3ccco3)=NS(=O)(=O)N2C)cc1OC	inactive: -4.93%
CCCN(C(=O)c1cn(C)c(=O)c2cc(OC)c(OC)cc12)c1ccc(CC)cc1	inactive: -24%

SMILES	activity change, positive = activation
CCN(c1ccccc1)S(=O)(=O)c1nnc(NC(=O)c2ccccc2OC)s1	inactive: 2.23%
COc1cc(C)c(Cc2cnc(N)nc2N)cc1OC	inactive: -3.59%
CCOCCc1nn2c(=O)cc(COC(=O)c3ccc(NC(=O)C4CCCCC4)cc3)nc2s1	inactive: -31.4%
Cc1nn(-c2ccccc2)c(OC(=O)c2ccccc2Br)c1S(=O)(=O)c1ccccc1	inactive: -7.53%
Cc1cc(NC(=O)c2ccc3c(c2)N(Cc2cccc(Cl)c2)C(=O)c2ccccc2S3(=O)=O)ccc1Br	inactive: -28.2%
O=C(Nc1ccc(Cl)cc1)C1CCC(CNS(=O)(=O)c2ccc(Br)s2)CC1 (configuration not stated)	inactive: -22.5%
O=C(CS(=O)(=O)c1cccc2nsnc12)N1CCN(c2ccccc2F)CC1	inactive: 3.93%
O=C1CC(c2c(Cl)cccc2Cl)c2c(ccc3ccccc23)N1 (configuration not stated)	inactive: -37.6%
CC1=C(C(=O)Nc2ccccc2Cl)C(c2cccc(O)c2)n2ncnc2N1 (configuration not stated)	inactive: -6.2%
CCNC(=O)NCc1cccc(Cl)c1	inactive: -6.31%
CCc1ccc(-n2c(=O)c3sc4ccccc4c3n(CC(=O)N(CC)Cc3ccccc3)c2=O)cc1	inactive: -2.1%
O=C(Nc1ccc2nc(SCC(=O)N3CCc4ccccc43)sc2c1)c1ccccc1	inactive: -1.09%
CCOC(=O)c1c(C)[nH]c(C)c1S(=O)(=O)N1CCCC(C(=O)Nc2cc(C)ccc2C)C1 (configuration not stated)	inactive: -1.3%
CCCCNC(=O)CSc1nc2nc(C)c(Cc3c(F)cccc3Cl)c(C)n2n1	inactive: -19%
CC(=O)c1ccc(NC(=O)COc2ccccc2-c2nc(-c3ccc(C)cc3)no2)cc1	inactive: 19.8%
O=C(NC1CC(=O)N(c2cccc(F)c2)C1)c1ccc2c(c1)OCO2 (configuration not stated)	inactive: -8.48%
Cc1ccc(OCC(=O)Nc2ccccc2C(=O)OCc2cc(=O)n3ccsc3n2)cc1	inactive: 21.2%
O=C(C1CCC(Cn2c(=O)c3sccc3n(Cc3ccccc3)c2=O)CC1)N1CCOCC1 (configuration not stated)	inactive: -24.7%
Cc1ccc(-c2nnc(Nc3ccccc3O)c3ccccc23)cc1	inactive: -34.7%
O=C(Nc1cc2c(cc1C(=O)c1ccccc1Br)OCCO2)c1ccccc1	inactive: -11.2%
Cc1ccc(Cl)cc1N1CCN(C(=O)c2cnn(C)c2C2CCN(C(=O)OC(C)(C)C)CC2)CC1	inactive: -47.9%
COc1cc(OC)c(NC(=O)N2CCc3c([nH]c4ccccc34)C2c2ccccc2F)cc1Cl (configuration not stated)	inactive: -26.3%
O=C(Nc1ccccc1F)c1ccc(Cn2nc(N3CCN(c4ccccc4)CC3)ccc2=O)o1	inactive: -31.1%
